The whole screen tested about 310,000 compounds, of which about 14,000 (4.5%) showed an effect of 50% or more. The effect is printed as a negative number. This is one part of the list.
target: human ether-à-go-go-related gene (hERG) potassium channel (human, UniProt Q12809); assay: primary screen, population patch clamp on CHO cells stably expressing hERG
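Further: peak tail current of the secondary pulse compared with the same well before compound.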

Sequence of human ether-à-go-go-related gene (hERG) potassium channel (Q12809 whole entry, looked up): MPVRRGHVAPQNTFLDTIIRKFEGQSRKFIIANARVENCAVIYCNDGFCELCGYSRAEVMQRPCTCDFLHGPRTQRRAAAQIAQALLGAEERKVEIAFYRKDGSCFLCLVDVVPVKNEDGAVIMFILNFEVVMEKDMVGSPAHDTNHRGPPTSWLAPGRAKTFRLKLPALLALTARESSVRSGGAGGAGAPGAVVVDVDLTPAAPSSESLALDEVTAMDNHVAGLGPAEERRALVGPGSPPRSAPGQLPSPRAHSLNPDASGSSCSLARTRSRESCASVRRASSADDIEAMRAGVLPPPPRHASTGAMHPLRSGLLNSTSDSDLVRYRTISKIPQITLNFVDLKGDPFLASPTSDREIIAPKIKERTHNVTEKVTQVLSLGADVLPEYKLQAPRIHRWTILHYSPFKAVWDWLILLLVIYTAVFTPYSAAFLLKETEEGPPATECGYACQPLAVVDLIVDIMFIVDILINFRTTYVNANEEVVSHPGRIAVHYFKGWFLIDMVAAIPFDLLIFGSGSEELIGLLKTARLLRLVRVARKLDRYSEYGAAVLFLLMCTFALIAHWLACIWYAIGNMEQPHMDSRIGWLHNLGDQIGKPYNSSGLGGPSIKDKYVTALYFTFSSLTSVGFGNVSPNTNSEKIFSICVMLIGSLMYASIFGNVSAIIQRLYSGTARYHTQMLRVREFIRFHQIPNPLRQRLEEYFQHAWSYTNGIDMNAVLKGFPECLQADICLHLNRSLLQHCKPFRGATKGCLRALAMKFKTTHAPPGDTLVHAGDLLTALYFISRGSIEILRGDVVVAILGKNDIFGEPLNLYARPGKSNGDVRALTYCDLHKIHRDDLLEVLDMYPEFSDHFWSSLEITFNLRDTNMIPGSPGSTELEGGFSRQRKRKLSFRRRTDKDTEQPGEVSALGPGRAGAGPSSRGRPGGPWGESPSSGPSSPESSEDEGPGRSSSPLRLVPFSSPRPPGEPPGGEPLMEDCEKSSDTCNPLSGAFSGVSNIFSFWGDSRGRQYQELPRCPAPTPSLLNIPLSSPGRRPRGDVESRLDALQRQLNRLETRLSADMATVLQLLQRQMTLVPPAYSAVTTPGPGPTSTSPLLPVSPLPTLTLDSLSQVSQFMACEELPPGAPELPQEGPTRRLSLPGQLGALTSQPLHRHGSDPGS

Row | Compound | hERG current change (%, negative = inhibition) at 10uM
1 | CCc1ccc(CNC(=O)c2ccc3nc(C4CCCCC4)oc3c2)nc1 | -15.8%
2 | Cn1c(CO)cnc1S(=O)(=O)Cc1c(Cl)cccc1Cl | 7.65%
3 | O=C(Nc1ccc(Cl)cc1)N(Cc1cccs1)Cc1cccs1 | 0.899%
4 | CCc1nnc(NC(=O)c2cccc(S(=O)(=O)N(C)c3ccccc3)c2)s1 | 17.9%
5 | CCOc1ccc(/C=N/NC(=O)c2cc3c(OC)cc(OC)cc3[nH]2)cc1OC | 16%
6 | Cc1c(Cl)cccc1NC(=O)Cn1cnc(S(=O)(=O)N2CCCC2)c1 | 20.3%
7 | Cc1cc(C)c(NC(=O)C2=COCCO2)c(C)c1 | -1.08%
8 | COc1ccc(C(=O)Oc2cc(N)n(S(=O)(=O)c3ccccc3)n2)cc1 | -7.73%
9 | COc1ccc(C)cc1S(=O)(=O)Nc1ccc2c(c1)OCO2 | 17.8%
10 | COc1cc(C#Cc2c(C=O)n(C)c3ccccc23)cc(OC)c1 | 22.9%
11 | Cc1cc(C)n(CC(=O)N/N=C/c2cccs2)n1 | -2.48%
12 | CCN(CC)S(=O)(=O)c1cc(NC(=O)CSc2nnc(N)s2)ccc1C | 0.0632%
13 | O=C(CC(Nc1ccc(Cl)cc1Cl)C(=O)O)c1ccccc1 (centres unmarked) | 16.3%
14 | CCCCC1=CC2=C(c3ccco3)C(=O)C(C)(OC(=O)c3ccc(OC)cc3)C(=O)C2=CN1CCCOC(C)C (centres unmarked) | 3.54%
15 | COc1ccc(S(=O)(=O)N2CCC(C(=O)NC(C)CCc3ccccc3)CC2)cc1 (centres unmarked) | -4.03%
16 | Cc1ccc(N2CC(C(=O)Nc3ccccc3C(=O)NC3CCCCC3)CC2=O)cc1C (centres unmarked) | -17.9%
17 | Cl.OC(CN1CCCCC1)Cn1c(C(F)(F)F)nc2ccccc21 (centres unmarked) | 4.06%
18 | CC(C)OC(=O)CSc1nc(N2CCOCC2)c2c(c1C#N)CC(C)(C)OC2 | -29.8%
19 | CCOc1ccc(S(=O)(=O)N2CCOCC2)cc1NC(=O)CN1C(=O)NC(C)(c2ccccc2)C1=O (centres unmarked) | -52.6%

Row | Compound | hERG current change (%, negative = inhibition) at 10uM
20 | CN1CCN(C(=O)C2=C[C@@H](c3ccccc3)C[C@@H](OCCCCO)O2)CC1 | -6.11%
21 | CC1CCCC(NC(=O)C2CCN(S(=O)(=O)N3CCOCC3)CC2)C1C (centres unmarked) | -10.8%
22 | Cc1cc(C)cc(NS(=O)(=O)c2c(C(=O)N3CCCCCC3)c(C)n(C)c2C)c1 | 4.69%
23 | COc1ccc(CN2CCN(CCCc3ccccc3)C(CCO)C2)c(OC)c1 (centres unmarked) | -72.9%
24 | Cc1ccc(SCC(=O)OCC(=O)N(C)CC(=O)Nc2ccc(F)cc2)cc1 | -23.4%
25 | O=C(CCCOc1ccc(Cl)cc1Cl)NCc1ccccn1 | -18.4%
26 | CN(CC(=O)NCC1CCCO1)S(=O)(=O)c1ccc(Br)cc1 (centres unmarked) | -22.6%
27 | Cn1c(CCN2CCCCC2)nc2cc(NC(=O)C3CCCCC3)ccc21 | -60.2%
28 | COc1cc(OC)c(C2SCCCS2)cc1OC | -1.46%
29 | COc1ccc(C(=O)NCc2ccccc2OC)c(OC)c1 | -11.6%
30 | O=C(NNC(=S)Nc1ccccc1C(F)(F)F)c1ccc(Br)o1 | 12.1%
31 | Cc1cc(=O)c(C(=O)Nc2cccc(C(=O)NC3CC3)c2)nn1-c1ccccc1Cl | -8.37%
32 | C=CCNC(=O)Nc1cc(Cl)ccc1OC | 7.65%
33 | CCN(Cc1nc(-c2ccc(Cl)cc2)no1)CC1CCCO1 (centres unmarked) | -62.9%
34 | COC(=O)c1sc2nc3c(cc2c1N)CCCC3 | 22.5%
35 | Cc1nc2ccccn2c1C(=O)NN=C1CCN(C)CC1 | 15.1%
36 | COc1ccc(CN2C(=O)c3cccnc3C2=O)cc1S(=O)(=O)N1CCOc2ccc(C)cc21 | -11.6%
37 | COC(OC)C12c3ccccc3C(c3ccccc31)C1C(=O)N(c3cccnc3)C(=O)C12 (centres unmarked) | 1.05%
38 | N#Cc1nc(-c2ccco2)oc1NCc1ccco1 | -9.23%

Row | Compound | hERG current change (%, negative = inhibition) at 10uM
39 | COC(=O)c1ccc(S(=O)(=O)N2CCCN(Cc3cccc(Br)c3F)CC2)n1C | -12.9%
40 | Cc1cccc(C(=O)N2CC3(C)CC2CC(C)(C)C3)c1 (centres unmarked) | 0.368%
41 | Cc1ccc(-c2nc(CN3CCCC(C(=O)N4CCOCC4)C3)c(C)o2)cc1 (centres unmarked) | -37.5%
42 | CCc1ccc(CNC(=O)c2ccc(NC(=O)C3=CSCCO3)cc2)cc1 | -23%
43 | CC1=NN(c2nc(-c3ccc(F)cc3)cs2)C(=O)C1 | 2.35%
44 | CC1CCN(CCCNC(=O)CN2C(=O)CSc3ccc(S(=O)(=O)N4CCOCC4)cc32)CC1 | 6.31%
45 | Cc1ccc(S(=O)(=O)N2CCCC(C)C2)cc1 (centres unmarked) | 12.9%
46 | c1ccc(CCNc2nnnn2-c2ccccc2)cc1 | 7.47%
47 | O=C(COC(=O)c1cc(S(=O)(=O)N2CCOCC2)ccc1F)c1ccc[nH]1 | -18.6%
48 | Cc1ccc(NC(=O)COc2ccccc2[N+](=O)[O-])nc1 | 15.4%
49 | CC(C)[C@@H]1CC[C@@H](C)C[C@H]1OC(=O)C[n+]1cc(-c2ccc(Cl)cc2)n2c1CCCCC2.[Cl-] | -60.1%
50 | Cc1ccc(N(CC(=O)NC2CCCCC2)S(=O)(=O)c2c(C)noc2C)cc1 | 12.4%
51 | Cc1ccc(C(=O)OCC(=O)NC(=O)c2cccn2C)cc1 | 4%
52 | CCOc1ccc(OCCSc2nc3ccccc3n2CC(=O)O)cc1 | -7.28%
53 | CNS(=O)(=O)c1cc(C(=O)OCC(=O)NC2CCCc3ccccc32)ccc1Cl (centres unmarked) | -7.78%
54 | Cc1ccc(-c2nnn(CC(=O)N3CCN(c4ccccc4)CC3)n2)o1 | 3.45%
55 | Cc1ccc(S(=O)(=O)NC(=O)Nc2ccc(C)cn2)cc1 | 14.6%
56 | NS(=O)(=O)c1ccc(NC(=O)CN2CCN(S(=O)(=O)c3ccc(F)cc3)CC2)cc1 | 7.15%
